Test results reported in the supplement of paper PMC11741623.
Some of the results follow. Interaction screen of human proteins with wild-type SARS-CoV-2 proteins by split-DHFR complementation in yeast, 1 µg/mL methotrexate. Value = fitness of the pair (three or more lineages) minus that of the viral protein without a human partner, on a scale set by negative (0) and fused positive (1) controls, mean of up to three cultures; higher = more likely to interact. Active = false discovery rate below 0.05 (one-sided t-test) in at least one culture. Nearly all pairs are not hits, and differences among them are mostly noise (correlation between cultures about 0.3); most hits were seen in one culture only. Human sequences are the Swiss-Prot entries looked up by gene name; the clone may be another isoform. NSP2 values were corrected by the authors for a growth advantage. Listed are human proteins with a hit and a random twelfth of the others.

B1: FAM204A, Q9H8W3 (protein)
chain: MWSGLLPPGLNESDAESNSEDEATLENSGLNLQEDKEDESIRKTEIIDFSTDEPKTETESNVNAYEECPSGIPIDMWNKFQELHKKHSEQKSTTSRFRGKRRKRSRKDKLKNEKELHSEPSSNETQWKELTQYFGVNDRFDPPVKRKKVEKSGLEKRIDQAVEEWNIEKAEELSNQLATRELGVKIAKAVACHNFVKAKKEVENSQAARKKKKLAWGFEAKKRWETKSNMGYM
B2: HSPB6, O14558 (protein)
chain: MEIPVPVQPSWLRRASAPLPGLSAPGRLFDQRFGEGLLEAELAALCPTTLAPYYLRAPSVALPVAQVPTDPGHFSVLLDVKHFSPEEIAVKVVGEHVEVHARHEERPDEHGFVAREFHRRYRLPPGVDPAAVTSALSPEGVLSIQAAPASAQAPPPAAAK
B3: KCNK16, Q96T55 (protein)
chain: MPSAGLCSCWGGRVLPLLLAYVCYLLLGATIFQLLERQAEAQSRDQFQLEKLRFLENYTCLDQWAMEQFVQVIMEAWVKGVNPKGNSTNPSNWDFGSSFFFAGTVVTTIGYGNLAPSTEAGQVFCVFYALLGIPLNVIFLNHLGTGLRAHLAAIERWEDRPRRSQVLQVLGLALFLTLGTLVILIFPPMVFSHVEGWSFSEGFYFAFITLSTIGFGDYVVGTDPSKHYISVYRSLAAIWILLGLAWLALILPLGPLLLHRCCQLWLLSLRQGCGAKAAPGRRPRRGSTAARGVQVTPQDFPISKKGLGS
B4: KRTAP3-1, Q9BYR8 (protein)
chain: MYCCALRSCSVPTGPATTFCSFDKSCRCGVCLPSTCPHEISLLQPICCDTCPPPCCKPDTYVPTCWLLNNCHPTPGLSGINLTTYVQPGCESPCEPRC

Each binder was assayed against SARS-CoV-2 M (assay: yeast fitness gain over the viral ORF with no human partner (scaled fitness); higher = more likely to interact).
Method: (§1)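 Split mouse DHFR complementation in pooled diploid yeast: human ORFeome clones carry one fragment and viral ORFs the other; barcoded lineages compete in 1 µg/mL methotrexate and fitness is read by barcode sequencing in up to three cultures.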

Binder	yeast fitness gain
B1	inactive: 0.0539
B2	inactive: -0.0566
B3	inactive: 0.0744
B4	inactive: 0.0975

What follows are binders tested against SARS-CoV-2 NSP1 in the same assay as above.
Method: as §1

Binder	yeast fitness gain
B1	inactive: -0.0689
B2	inactive: -0.00178
B3	inactive: -0.0423
B4	inactive: -0.00576

Each binder was assayed against SARS-CoV-2 NSP10 in the same assay as above.
Method: as §1

Binder	yeast fitness gain
B1	inactive: -0.0218
B2	inactive: -0.133
B3	inactive: 0.0018
B4	inactive: 0.0102

The binders below were run against SARS-CoV-2 NSP12 in the same assay as above.
Method: as §1

Binder	yeast fitness gain
B1	inactive: 0.0154
B2	inactive: -0.0955
B3	inactive: 0.0319
B4	inactive: 0.022

These binders were tested against SARS-CoV-2 NSP13 in the same assay as above.
Method: as §1

Binder	yeast fitness gain
B1	inactive: -0.0169
B2	inactive: -0.132
B3	inactive: -0.0805
B4	inactive: -0.0524

What follows are binders tested against SARS-CoV-2 NSP16 in the same assay as above.
Method: as §1

Binder	yeast fitness gain
B1	inactive: 0.00535
B2	inactive: -0.0492
B3	inactive: 0.117
B4	inactive: -0.0329

What follows are binders tested against SARS-CoV-2 NSP2 in the same assay as above.
Method: as §1

Binder	yeast fitness gain
B1	inactive: -0.166
B2	inactive: -0.36
B3	inactive: -0.19
B4	inactive: -0.109

The binders below were run against SARS-CoV-2 NSP5 in the same assay as above.
Method: as §1

Binder	yeast fitness gain
B1	inactive: -0.103
B2	inactive: -0.0296
B3	inactive: -0.00498
B4	inactive: 0.048

Each binder was assayed against SARS-CoV-2 NSP6 in the same assay as above.
Method: as §1

Binder	yeast fitness gain
B1	inactive: 0.0638
B2	inactive: -0.11
B3	inactive: -0.0233
B4	inactive: -0.0293

Each binder was assayed against SARS-CoV-2 NSP7 in the same assay as above.
Method: as §1

Binder	yeast fitness gain
B1	inactive: 0.0537
B3	inactive: -0.0882
B4	inactive: -0.0166

The binders below were run against SARS-CoV-2 NSP8 in the same assay as above.
Method: as §1

Binder	yeast fitness gain
B1	inactive: -0.00826
B2	inactive: -0.105
B3	inactive: 0.0522
B4	inactive: 0.0243

What follows are binders tested against SARS-CoV-2 ORF10 in the same assay as above.
Method: as §1

Binder	yeast fitness gain
B1	inactive: -0.0203
B2	inactive: 0.109
B3	inactive: 0.0117
B4	inactive: 0.0412

What follows are binders tested against SARS-CoV-2 ORF3A in the same assay as above.
Method: as §1

Binder	yeast fitness gain
B1	inactive: -0.0718
B3	inactive: -0.149
B4	inactive: 0.0149

These binders were tested against SARS-CoV-2 ORF3B in the same assay as above.
Method: as §1

Binder	yeast fitness gain
B1	inactive: 0.0316
B2	inactive: -0.0674
B3	inactive: 0.0351
B4	inactive: -0.0366

The binders below were run against SARS-CoV-2 ORF6 in the same assay as above.
Method: as §1

Binder	yeast fitness gain
B1	inactive: -0.0142
B2	inactive: -0.007
B3	inactive: -0.0162
B4	inactive: -0.0253

The binders below were run against SARS-CoV-2 ORF7A in the same assay as above.
Method: as §1

Binder	yeast fitness gain
B1	inactive: 0.00459
B2	inactive: 0.132
B3	inactive: -0.011
B4	inactive: 0.0224

Each binder was assayed against SARS-CoV-2 ORF7B in the same assay as above.
Method: as §1

Binder	yeast fitness gain
B1	inactive: -0.212
B2	inactive: -0.072
B3	inactive: -0.0255
B4	inactive: 0.0451

The binders below were run against SARS-CoV-2 ORF8 in the same assay as above.
Method: as §1

Binder	yeast fitness gain
B1	inactive: 0.00846
B2	inactive: 0.0477
B3	inactive: -0.0351
B4	inactive: -0.00512

The binders below were run against SARS-CoV-2 ORF9B in the same assay as above.
Method: as §1

Binder	yeast fitness gain
B1	inactive: -0.0624
B2	inactive: 0.0342
B3	inactive: -0.0778
B4	inactive: -0.106

The binders below were run against SARS-CoV-2 ORF9Bwu (the 73-codon ORF) in the same assay as above.
Method: as §1

Binder	yeast fitness gain
B1	inactive: -0.0273
B2	inactive: -0.0764
B3	inactive: 0.0241
B4	inactive: -0.186

Each binder was assayed against SARS-CoV-2 S in the same assay as above.
Method: as §1

Binder	yeast fitness gain
B1	inactive: -0.00615
B2	inactive: 0.0498
B3	inactive: 0.0342
B4	inactive: -0.043

Each binder was assayed against SARS-CoV-2 N in the same assay as above.
Method: as §1

Binder	yeast fitness gain
B2	inactive: -0.0131
B4	inactive: -0.119

The binders below were run against SARS-CoV-2 NSP14 in the same assay as above.
Method: as §1

Binder	yeast fitness gain
B2	inactive: -0.208
B3	inactive: -0.183

Each binder was assayed against SARS-CoV-2 NSP15 in the same assay as above.
Method: as §1

Binder	yeast fitness gain
B2	inactive: -0.0966
B3	inactive: -0.00726
B4	inactive: -0.0496

The binders below were run against SARS-CoV-2 NSP9 in the same assay as above.
Method: as §1

Binder	yeast fitness gain
B2	inactive: -0.0911
B3	inactive: -0.0656
B4	inactive: -0.201
